The values that follow are results of earlier work, collected in EP0339681B1, “Antitumor antibiotic substance” (MEIJI SEIKA KAISHA LTD., priority 1988, dated 1989).

The data set concerns various tumor cells. To be noted: cited from earlier work.

On to `COC(=O)C1(C)Nc2c(O)cc3c(c2C1=O)C(CCl)CN3C(=O)c1cc2cc(OC)c(OC)c(OC)c2[nH]1` (centres unmarked) [SF2582A], for which the “cytotoxic effect on various tumor cells” value is listed as “remarkable cytotoxic effect”.

As to `COC(=O)C1(C)Nc2c(O)cc3c(c2C1=O)CC(Cl)CN3C(=O)c1cc2cc(OC)c(OC)c(OC)c2[nH]1` (centres unmarked) [SF2582B], the “cytotoxic effect on various tumor cells” value is listed as “remarkable cytotoxic effect”.
